The campaign covered roughly 52,000 compounds. About 1,700 (3.3%) were called active. Cut-off read from the data, not from the text of the source: active = survival mostly below about 52% (no sharp cut-off); inactive = mostly above about 56%. Some of the results follow.

The test system of this assay is Wild type. In words: growth inhibition of S. aureus wild type versus tarO mutant, primary screen, teichoic acid synthesis inhibitors, RN4220, OD600 (AID 463173). To be noted: S. aureus RN4220 wild type/DeltatarO growth, OD600, 18 h, active compounds read low, screened at 18.75 µg/mL (by protocol).
For the compound `COC(=O)C1=C(C)NC2=C(C(=O)c3ccccc32)C1c1ccc(O)c(OC)c1` (configuration not stated), the survival is inactive: 109%.

On to `Cc1ccc(S(=O)(=O)C(CNS(=O)(=O)c2ccc(F)c(C)c2)c2cccs2)cc1` (configuration not stated), for which the survival was inactive: 88%.

As for `N#CSc1ccc2nc(N)sc2c1`, the survival was inactive: 93%.

Turning to `CCc1ccccc1N(CC)C(=O)Cn1nc(Cc2ccncc2)c2ccccc2c1=O`, the survival was inactive: 91%.

Turning to `Cc1ccc(-n2cnc3cc(C(=O)NCCC4=CCCCC4)ccc32)cc1Cl`, the survival is inactive: 101%.

On to `Cc1cccc(NC(=O)COc2ccc3oc4c(c3c2)CCCC4)c1`, for which the survival was inactive: 48%.

`Cc1ccc(OCC(=O)Nc2cccc3ccc(C)nc23)c(C)c1`: the survival was inactive: 70%.

In the case of `O=C(CCc1nc(-c2cccs2)no1)Nc1ccc([N+](=O)[O-])cc1`, the survival is inactive: 81%.

Turning to `CC(C)OC(=O)CSc1nnnn1C`, the survival was inactive: 93%.

Consider `COc1ccc(CNC(=O)C(=O)NCC(c2cccs2)S(=O)(=O)c2cccs2)cc1` (configuration not stated), for which the survival is inactive: 68%.

On to `COc1ccc(Cl)cc1NC(=O)Cn1nc(C(F)(F)F)cc1C`, for which the survival is inactive: 108%.

For the compound `Cn1c(/C(C#N)=C/c2ccc(C(F)(F)F)cc2)nc2ccccc21`, the survival is inactive: 91%.

As for `CCOc1ccccc1NC(=O)Cn1nc(N2CCN(c3ccccc3)CC2)ccc1=O`, the survival is inactive: 99%.

`O=C(NCc1ccccc1Cl)c1ccc(-n2cnc3cccnc32)cc1`: the survival is inactive: 70%.

`CCC(NC(=O)Nc1cccc(C)c1)c1c(-n2cccc2)sc2c1CCN(C)C2` (configuration not stated): the survival is inactive: 78%.

Regarding `O=C(CCC1N=C2c3ccccc3N=C(SCC(=O)NCCc3ccccc3)N2C1=O)NCc1ccc(F)cc1` (configuration not stated), the survival is inactive: 65%.

Turning to `Cc1ccc(CNC(=O)CSCc2nc(-c3cccc(C)c3)oc2C)cc1`, the survival is active: -1%.

Take `Cc1cn2c(=O)c(S(=O)(=O)NCc3ccc(F)cc3)c(C)nc2s1`: the survival was inactive: 83%.

Turning to `CCOc1ccc(-c2nnc(SCC(=O)N(CC)c3cccc(C)c3)o2)cc1`, the survival is inactive: 78%.

Regarding `O=C(Cn1c(=O)n(-c2ccccc2Cl)c(=O)c2sc3ccccc3c21)NC1CCCC1`, the survival is inactive: 88%.

`CCCN(CCC)C(=O)Cn1c(=O)n(-c2ccc(Cl)c(Cl)c2)c(=O)c2c(C)c(C(=O)N(C)C)sc21`: the survival is inactive: 82%.

For the compound `CCN(CC)S(=O)(=O)c1ccc(NC(=O)c2ccccc2)cc1`, the survival is inactive: 104%.

`CCOc1ccc(OCC)c(NC(=O)C2CCCN(S(=O)(=O)c3ccc(C)cc3)C2)c1` (configuration not stated): the survival is inactive: 77%.

Take `COc1ccc(-c2c(C)nn3c(N4CCN(c5cc(Cl)ccc5C)CC4)cc(C)nc23)cc1OC`: the survival was inactive: 81%.

With `Cc1ccn2c(Nc3ccc4c(c3)OCCO4)c(-c3ccc(N(C)C)cc3)nc2c1`, the survival is inactive: 74%.

On to `COc1ccccc1CNC(=O)CSc1cc(C)[nH]c(=O)n1`, for which the survival is inactive: 78%.

Take `CC1=C(c2ccc(C(C)C)cc2)S(=O)(=O)NC1=NCc1ccc(Cl)cc1`: the survival was inactive: 99%.

For the compound `COCCCNC(=O)C1CCN(c2nc3ccc(Cl)cc3[nH]2)CC1`, the survival was inactive: 128%.

Regarding `Cc1sc2ncn(CC(=O)N3CCN(c4ccccc4)CC3)c(=O)c2c1S(=O)(=O)N1CCC(C)CC1`, the survival was inactive: 99%.

On to `CCOC(=O)c1ccccc1NC(=O)c1nn(-c2ccc(OC)c(Cl)c2)c(=O)c2c1c1ccccc1n2C`, for which the survival was inactive: 85%.

With `Cc1ccc(CNC(=O)CCCc2nnc3n(CC(C)C)c(=O)c4sccc4n23)cc1`, the survival is inactive: 101%.

With `CCc1ccc2occ(CC(=O)Nc3ccc(C)c(C)c3)c2c1`, the survival is inactive: 102%.

As for `O=C(CN1C(=O)CSc2ccc(S(=O)(=O)N3CCCC3)cc21)NCc1ccc(F)cc1Cl`, the survival is inactive: 85%.

Regarding `O=c1c2nncn2ccn1-c1ccc(F)c(F)c1`, the survival was inactive: 67%.

With `O=C(c1cc2cc3ccc(Cl)cc3nc2o1)N1CCN(c2cccc(Cl)c2)CC1`, the survival was inactive: 58%.

On to `CCN(CC)C(=O)C1CCCN(c2ncnc3c2c(-c2ccccc2)cn3-c2cccc(C)c2)C1` (configuration not stated), for which the survival is inactive: 71%.

In the case of `Cc1cccc(NC(=O)N2CC=C(c3c[nH]c4ccccc34)CC2)c1C`, the survival was inactive: 73%.

For `Cc1ccc(Cl)cc1Nc1nn2c(=O)c3ccc(C(=O)NC4CCCCC4)cc3nc2s1`, the survival was inactive: 124%.

As to `CCCSc1ncnc2c1c(-c1ccccc1)cn2-c1ccccc1OC`, the survival is active: 1%.

Turning to `COc1ccc(OC)c(NC(=O)CS(=O)(=O)Cc2nc(-c3ccc(C)cc3)oc2C)c1`, the survival was inactive: 84%.

For `CCOc1ccc2c(c1)c(=O)c(S(=O)(=O)c1ccc(CC)cc1)cn2Cc1cccc(Cl)c1`, the survival was inactive: 82%.

Turning to `CCc1cccc(C)c1NC(=O)Cn1ncc2c3ccccc3n(Cc3ccccc3)c2c1=O`, the survival was inactive: 94%.

Regarding `COc1ccc(-c2cn3nc(SCC(=O)Nc4cc(C)cc(C)c4)ccc3n2)cc1`, the survival is inactive: 68%.

Take `CN(C)c1ccc(CNC23CN4CN(CN(C4)C2)C3)cc1`: the survival was inactive: 107%.

Consider `CCOc1ccc(OCC)c(NC(=O)c2cc(-c3cccs3)nc3ccccc23)c1`, for which the survival was inactive: 99%.

Regarding `CCn1c(SC)nnc1C1CCCN(C(=O)Cc2cccnc2)C1` (configuration not stated), the survival was inactive: 89%.

As to `COc1ccc(CNC(=O)c2ccc(CS(=O)(=O)c3ccc(Br)cc3)o2)cc1`, the survival is inactive: 80%.

On to `CCCCOC(=O)c1ccc(Nc2nc3ccc(C(=O)c4ccccc4)cc3n3cnnc23)cc1`, for which the survival is inactive: 53%.

For `O=c1c2sccc2n(Cc2cc(=O)n3cc(Cl)ccc3n2)c(=O)n1-c1ccccc1`, the survival was inactive: 81%.

For the compound `O=c1c(N2CCN(c3cccc(Cl)c3)CC2)csc2ccc(Cl)cc12`, the survival was inactive: 148%.

Take `O=C1CCSc2ccc(S(=O)(=O)Nc3cccc(C(F)(F)F)c3)cc2N1`: the survival is active: -4%.

As for `CCOC(=O)c1[nH]c(C)c(CCC(=O)Nc2cc(Cl)c(OC)cc2OC)c1C`, the survival is inactive: 127%.

As to `CS(=O)(=O)N(CC(=O)N1CCCCCC1)c1cc(Cl)cc(Cl)c1`, the survival is inactive: 103%.

For the compound `Cc1ccc(CCNC(=O)c2ccc3c(c2)N(Cc2ccc(F)cc2)CCS3)cc1`, the survival was inactive: 87%.

Take `CCC(C)NC(=O)c1cn(CC)c2ccc(S(=O)(=O)N3CCc4ccccc4C3)cc2c1=O` (configuration not stated): the survival was inactive: 40%.

Consider `Cc1cc(C)c(NC(=O)Cn2c(=O)n(CC(=O)NCCc3ccccc3)c(=O)c3ccccc32)c(C)c1`, for which the survival is inactive: 93%.

Take `O=C(NCc1ccccc1Cl)c1ccc2c(c1)N(Cc1ccccc1)CCS2`: the survival is inactive: 100%.

Source of the values: PubChem BioAssay AID463173 (ICCB-Longwood Screening Facility, Harvard Medical School, 2010).
